In PubChem BioAssay AID1159614 (National Center for Advancing Translational Sciences (NCATS), 2016):
The campaign covered roughly 45,000 compounds. About 65 (0.1%) were called active. The call rests on the fitted dose curve; in most records, active means well fitted activation curve with a large enough effect; inconclusive means small, poorly fitted or top-dose-only effect; inactive means no such curve, though single readings can be large or run the other way. The list shows a part of the results.

Target: Galactocerebrosidase (Homo sapiens) (UniProt P54803)
Experiment: A Novel Cell-Based Assay to Identify Small Molecules for B -Galactocerebrosidase; further: 0% is about no effect; nearly all actives have a fitted effect of over 65% in size
Settings: 145M-Twi-hGALC-G270D cells, HMU-beta-Gal fluorescence, 48 h; series mostly up to 57.5 µM; activation: at the top concentration
Procedure, shortened: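 qHTS, 1536-well; 145M-Twi-hGALC-G270D cells (WT line also made) in DMEM/F12 + 10% FBS; compound incubation on live cells; HMU-β-gal 0.1 mM final, pH 5.2, NaTC; carbonate stop; fluorescence increase = enhanced residual activity.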

UniProt P54803, sequence (P54803 whole entry, looked up): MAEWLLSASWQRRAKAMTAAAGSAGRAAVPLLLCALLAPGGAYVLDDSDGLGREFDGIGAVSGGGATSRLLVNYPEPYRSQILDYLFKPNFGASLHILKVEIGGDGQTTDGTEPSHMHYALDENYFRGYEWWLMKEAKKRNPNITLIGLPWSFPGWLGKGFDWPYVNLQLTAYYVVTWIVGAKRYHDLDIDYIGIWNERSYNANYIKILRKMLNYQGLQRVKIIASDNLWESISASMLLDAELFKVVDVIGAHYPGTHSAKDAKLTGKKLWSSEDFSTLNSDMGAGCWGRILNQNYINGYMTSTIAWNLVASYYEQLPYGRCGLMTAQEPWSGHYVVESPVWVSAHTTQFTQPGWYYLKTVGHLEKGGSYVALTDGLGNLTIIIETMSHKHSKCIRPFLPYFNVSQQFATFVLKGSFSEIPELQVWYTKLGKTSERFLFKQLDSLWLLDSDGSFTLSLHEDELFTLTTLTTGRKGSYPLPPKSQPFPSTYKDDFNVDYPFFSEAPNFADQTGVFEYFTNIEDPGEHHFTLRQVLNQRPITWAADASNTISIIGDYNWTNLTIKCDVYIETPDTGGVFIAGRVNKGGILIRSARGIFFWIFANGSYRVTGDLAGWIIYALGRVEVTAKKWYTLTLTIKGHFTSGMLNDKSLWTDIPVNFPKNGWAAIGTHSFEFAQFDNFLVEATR

SMILES	activation
O=C(NCc1cccnc1)C1CCN(Cc2cc3ccccc3n2Cc2ccccc2)CC1	inactive: -30.2%
CCOC(=O)c1cc(OC(=O)c2cccc(F)c2)n(-c2ccccc2)n1	inactive: 3.43%
CC(C)c1ccc(-c2noc(SCC(=O)N(C)c3ccc(F)cc3)n2)cc1	inactive: -18.4%
CC(=O)N1CCCc2ccc(NC(=O)c3ccc(C(F)(F)F)cc3)cc21	inactive: -12.2%
Cc1ccccc1-c1noc(-c2ccc(N3CCCC3)c([N+](=O)[O-])c2)n1	inactive: -16.1%
CCN(CC)S(=O)(=O)c1ccc2c(c1)N(CC(=O)Nc1c(C)cc(C)cc1C)C(=O)CS2	inactive: -16.1%
Cc1cc(C)cc(NC(=O)CSc2nnc(CNC(=O)c3c(F)cccc3Cl)o2)c1	inactive: -18%
COC(=O)c1cc2oc(C)cc2n1Cc1ccc(C)cc1	inactive: -12.7%
CC(C)c1ccc(NC(=O)CN2C=NS(=O)(=O)c3ccccc32)cc1	inactive: -16.1%
CCC(=O)OC1=CN(Cc2ccccc2)S(=O)(=O)c2ccccc21	inactive: -3.6%
CCC(=O)C1=C(c2ccc(F)cc2)N(C(=O)CC)n2c(nnc2C2CCCCC2)S1	inactive: -1.14%
Cc1cccc(N2CCN(C(=O)CN3C(=O)COc4ccc(S(=O)(=O)N5CCCC5)cc43)CC2)c1C	inactive: -10.5%
N#C/C(=C\c1c(Oc2ccc(F)cc2)nc2ccccn2c1=O)c1nc2ccccc2s1	inactive: -7.59%
Cc1ccccc1CS(=O)(=O)c1ncc(Cl)c(C(=O)Nc2nnc(C(C)C)s2)n1	inactive: -23.9%
Cc1oc(-c2cccc(Br)c2)nc1CSc1nc2ncccc2[nH]1	inactive: -10.7%
O=C(O)CCCCC1CCSS1 (centres undefined)	inactive: -10.8%
CCCOc1ccc(C(=O)Nc2sc3c(c2C(=O)OCC)CCCCC3)cc1	inactive: -7.87%
O=C1CC(c2ccc(F)cc2)c2c(n3c(nc4ccccc43)[nH]c2=O)N1 (centres undefined)	inactive: -14.2%
COCC(=O)O[C@]1(CCN(C)CCCc2nc3ccccc3[nH]2)CCc2cc(F)ccc2[C@@H]1C(C)C	inactive: -18.1%
CCc1ccc(CNC(=O)C2CCN(C(=O)c3ccc(-n4ccc5ccccc54)s3)CC2)cc1	inactive: -14.2%
Cc1cccc(OCCSc2nc3ccccc3n2CC(=O)N2CCOCC2)c1C	inactive: -16.7%
CCOc1ccc(S(=O)(=O)Nc2ccc(OC)c(Cl)c2)c2cccnc12	inactive: -11.1%
CCOC(=O)N1CCN(Cc2nc3cc(NC(=O)c4ccc([N+](=O)[O-])cc4)ccc3n2C(C)C)CC1	inactive: 2.15%
CCN1C(=O)c2ccccc2S(=O)c2ccc(C(=O)NCc3ccccc3OC)cc21 (centres undefined)	inactive: -8.72%

SMILES	activation
Cc1ccc(NC(=O)C2CCCN(S(=O)(=O)c3c(C)nn(C)c3C)C2)c(C)c1 (centres undefined)	inactive: -11.4%
CCOc1ccc(C2C(C(N)=O)=C(C)Nc3nc(-c4cccc(Cl)c4)nn32)cc1OC (centres undefined)	inactive: -13.8%
CSc1ccc(NC(=O)Cn2nnnc2-c2ccccc2F)cc1	inactive: -8.63%
COc1cc(/C=C/c2nc3cc(Cl)ccc3c(=O)n2-c2ccc(C)cc2C)cc(OC)c1OC	inactive: -15.4%
COc1ccc(S(=O)(=O)NCC(c2ccco2)N2CCN(c3ccccc3F)CC2)cc1C (centres undefined)	inactive: -14.3%
O=C(O)c1c2c(nc3ccc(S(=O)(=O)N4CCC(C(=O)NCc5ccc(Cl)cc5)CC4)cc13)CCCC2	inactive: -9.3%
COc1cccc(CNC(=O)Cn2c(SCC(=O)Nc3ccc(C)c(C)c3)nc3ccccc32)c1	inactive: -6.89%
CCCCCOc1ccc(NC(=O)Cn2c(-c3cncs3)nc3ccccc32)cc1	inactive: -8.57%
Cc1cc(Nc2cccc(C(F)(F)F)c2)nc2ccc(NC(=O)c3cccnc3)cc12	inactive: -6.92%
CCOC(=O)c1c(C)oc2nc(C)nc(N3CCN(c4cccc(C)c4C)CC3)c12	inactive: -14.2%
CC(NC(=O)c1cc(-c2ccc(Cl)cc2)on1)c1ccccc1 (centres undefined)	inactive: -4.75%
COc1nnc(-c2ccc(N3CCCCC3)c(NC(=O)c3ccccc3)c2)c2ccccc12	inactive: -10.7%
O=C(NCC(c1cccnc1)N1CCc2ccccc21)C(=O)Nc1ccccc1F (centres undefined)	inactive: -7.5%
COc1ccc(Nc2ncnc3c2nc2n3CCCC2)cc1Cl	inactive: -13.8%
CCc1cccc(NC(=O)c2cccc3c2C(=O)N(C2CCCCC2)C3)c1	inactive: -13.5%
CCOC(=O)c1nnn(CC(=O)NC(=O)Nc2ccc(F)cc2)c1C(=O)OCC	inactive: -22.3%
COc1ccc(CNC(=O)c2ccc3c(c2)N(Cc2ccccc2)CCS3)cc1	inactive: -10.8%
Cc1oc2ncn(CC(C)C)c(=O)c2c1C(=O)N(Cc1ccccc1)C(C)C	inactive: -4.92%
Cc1nc2nc(C(F)(F)F)[nH]n2c(=O)c1Cc1ccccc1	inactive: -13%
CC(C)Oc1ccc(C(=O)Nc2nc3c(s2)CC(C(C)(C)C)CC3)cc1 (centres undefined)	inactive: -30.3%
CC1Cn2cc(C(=O)Nc3ccccc3C(F)(F)F)c(=O)c3c(Cl)ccc(c32)O1 (centres undefined)	inactive: -20.1%
O=C(NCC(c1ccc2c(c1)OCO2)N1CCN(c2ccccc2)CC1)c1ccccc1 (centres undefined)	inactive: -11.9%
c1ccc(CNCCNCc2ccccc2)cc1	inactive: -8.86%
COc1ccc(Cl)cc1NS(=O)(=O)c1c(C)[nH]c(=O)[nH]c1=O	inactive: -8.82%

SMILES	activation
CCOc1ccccc1NC(=O)c1c(NC(=O)c2ccncc2)sc2c1CCC(C(C)(C)C)C2 (centres undefined)	inactive: -16.8%
Cc1ccc(O)c(NC(=O)CCSc2nc(-c3ccco3)cc(C(F)(F)F)n2)c1	inactive: -6.17%
O=C(CN1C(=O)C2(SCC(=O)N2c2ccc(Cl)cc2)c2ccccc21)NCCc1ccccc1 (centres undefined)	inactive: -22.5%
C#C[C@]1(OC(C)=O)CC[C@H]2[C@@H]3CCC4=C/C(=N/O)CC[C@@H]4[C@H]3CC[C@@]21CC	inactive: -35%
O=C(/C=C/c1ccccc1)N1CCN(Cc2cc(=O)n3nc(-c4ccccc4Cl)sc3n2)CC1	inactive: -9.04%
COc1cc(OC)c(NC(=O)c2cn(C)c(=O)c3cc(OC)c(OC)cc23)cc1Cl	inactive: -11.7%
Cc1ccc(Cn2c(C)c3cnn(CC(=O)N4CCN(c5ccc(F)cc5)CC4)c(=O)c3c2C)cc1	inactive: -5.25%
CSCCC(NS(=O)(=O)c1ccc2c(c1)oc(=O)n2C)C(=O)Nc1ccc(Cl)cc1 (centres undefined)	inactive: -13.3%
CC(C)c1ccc(CNc2nc(-c3ccco3)nn2C(=O)c2ccc([N+](=O)[O-])cc2)cc1	inactive: -7.11%
COc1ccc(OCC(=O)N(Cc2cccs2)c2ccc(OC)cc2)cc1	inactive: -7.89%
COCc1cc(C)nc2sc3c(c12)NC(c1ccc(O)c(OC)c1)N(c1ccccc1)C3=O (centres undefined)	inactive: -0.812%
O=C(NC1(C(F)(F)F)C(=O)Nc2c1c(=O)[nH]c(=O)n2-c1ccccc1)c1ccccc1Cl (centres undefined)	inactive: -17.1%
COc1cc(OC)cc(-c2cc3nc(C)c(CCC(=O)Nc4ccc(C(C)=O)cc4)c(C)n3n2)c1	inactive: -7.62%
C=Cc1ccc(Cn2c(=O)cc(C)c3c(C)nn(-c4ccccc4)c32)cc1	inactive: 8.27%
COc1ccc(-c2noc(N3CCC(C(=O)N4CCN(c5ccccc5F)CC4)CC3)n2)cc1	inactive: 2.67%
CCOCCCNc1nc2ccccc2n2c(CC)nnc12	inactive: -14.7%
COc1cc2c(C(=O)N3CCN(c4cccc(C(F)(F)F)c4)CC3)cn(CC(C)C)c(=O)c2cc1OC	inactive: -7.65%
CCn1c(C)c(C)c2cc(C(=O)NCc3ccc(OC(C)C)cc3)ccc21	inactive: -2.75%
COc1ccc(NC(=O)Cn2c(=O)n(Cc3ccc4c(c3)OCO4)c(=O)c3ccc(C(=O)NC4CCCCC4)cc32)cc1	inactive: -17.7%
Cc1nn2c(=O)cc(COC(=O)c3ccc(NC(=O)c4cccc(Br)c4)cc3)nc2s1	inactive: -2.5%
COc1ccccc1NC(=O)CSc1nc(-c2ccc(C)cc2)nc2c1Cc1c(CO)cnc(C)c1O2	inactive: -9.38%
COc1ccc(-c2cn3nc(N4CCCC(C(=O)Nc5ccccc5OC)C4)sc3n2)cc1 (centres undefined)	inactive: -9.55%
c1ccc2occc2c1	inactive: -25.1% [at 114 µM]
Cc1cccc(NC(=O)CCN2CCN(c3ccccc3F)CC2)c1	inactive: -14.1%

SMILES	activation
CCOC(=O)c1c(S(=O)(=O)NCC(=O)N2CCN(c3cc(C)ccc3C)CC2)c(C)n(C)c1C	inactive: 2.44%
COC(=O)c1ccccc1NC(=O)Cn1c(=O)n(CCC(=O)NCc2ccccc2OC)c(=O)c2ccccc21	inactive: -26.9%
Cc1ccc(Cl)cc1NC(=O)CN1C(=O)CSc2ccc(S(=O)(=O)N3CCCC3)cc21	inactive: -12.4%
Cc1cn([C@@H]2O[C@H](CO)[C@@H](O)[C@H]2F)c(=O)[nH]c1=O	inactive: -10.9%
O=C(CSc1nccn1C1CCCC1)Nc1cccc(F)c1	inactive: -44.8%
CSCC[C@@H](C(=O)Nc1cccc(F)c1)N1Cc2ccccc2C1=O	inactive: -9.24%
CCOC(=O)C1CCN(c2c(C(=O)c3ccc(OC)cc3)cnc3ccccc23)CC1	inactive: -6.25%
COc1ccc(CCNC(=O)c2nc(SCc3ccccc3F)ncc2Cl)cc1OC	inactive: -25.4%
CCOCCc1nn2c(=O)cc(COC(=O)Cc3ccccc3)nc2s1	inactive: -8.48%
CCc1ccc(-c2nc(SCC(=O)NCC3CCCO3)c(-c3ccc(C)cc3)[nH]2)cc1 (centres undefined)	inactive: -16.1%
Cc1cccc(C)c1NC(=O)Cn1c(=O)n(CCCS(=O)(=O)C2CCCCC2)c(=O)c2ccccc21	inactive: 3.08%
Cc1cccc(N2CCN(c3ccc(C(=O)O)cc3NC(=O)c3cccc(Cl)c3)CC2C)c1 (centres undefined)	inactive: -12%
CCCN(C(=O)Cn1ncc2c1-c1ccccc1OC2)c1cccc(C)c1	inactive: -28.4%
Cc1ccc(-n2c(=O)c3ccc(C(=O)NCc4ccco4)cc3n(CC(=O)Nc3ccccc3C(F)(F)F)c2=O)cc1	inactive: -3.59%
Cc1cc(C)cc(-n2c(C)cc(C(=O)C(=O)Nc3nnc(C)s3)c2C)c1	inactive: -11.1%
CN(C(=O)Cn1cnc2onc(-c3ccc(F)cc3)c2c1=O)c1ccccc1Cl	inactive: -27.7%
O=C(Cn1c(=O)oc2cc(S(=O)(=O)N3CCCCCC3)ccc21)Nc1ccc(F)cc1F	inactive: -19.1%
O=C(Nc1cc2c(cc1C(=O)c1cccc(Br)c1)OCCO2)c1ccccc1F	inactive: -2.92%
CCOC(=O)c1cc2c(=O)n3ccccc3nc2n(Cc2ccco2)c1=NC(=O)c1ccc(C)c(C)c1	inactive: -11.6%
CN(c1ccccc1)S(=O)(=O)c1nnc(NC(=O)COc2ccccc2)s1	inactive: -9.53%
O=C(NC1(C(F)(F)F)C(=O)Nc2c1c(=O)[nH]c(=O)n2-c1ccccc1)c1ccccc1 (centres undefined)	inactive: -20.5%
CCCN(CCC)C(=O)Cn1c(SCc2cccc(C(F)(F)F)c2)nc2cccnc21	inactive: -9.84%
